# In the RNAGym collection of RNA variant scans (doi:10.7554/elife.90254):
# Read counts are not given, so values of variants with three or more changes are uncertain.
# B1: OR4K15 (parent)
# chain: GUUAACGGUCAUAGGCCAUGGAAACUAGGAGCACCAUUUCGCUGCCAGUGAAGAAAUGAACAAAGAAAAUCUGGGCCAGGCAGGCAUCAAAAGAAAUAGUCUUGCGCUCAACCAGAAAGUCUGUAAUCAUUUUAAGGGUA
# Variants of: B1
# Test: self-cleavage, relative activity (ratio to wild type); higher = more cleavage; in vitro, sequencing; the parent is a self-cleaving ribozyme
row,Variant,self-cleavage
1,A56G A64G U70G A92G A111G,0.02
2,A59G U108C A125G,0.02
3,A59G A86U U87A,2.9
4,A60G A86U U108C,0.01
5,U57A A90G U100C,2.3
6,A60C A91G U102C U103C A117G,0.23
7,A56G C77U U122C,1.69
8,A56G A90G U102A A114U,0
9,A56G A68C U132C,1.39
10,U57A A63G A82G,0.69
11,A60G A66G A90G U131C,0.49
12,A60G A90G A95G,0.95
13,A59G A64G U122A,0.55
14,U57C A78G U87C,0.15
15,A56G A92C U102A,0.62
16,A59G A63G A111G,0.04
17,A59C A69G A86G A118U U122C U132C A135G,0.16
18,U57A U70C U72A U124C U139C,0.09
19,A59G A96G U103C A129G,0.99
20,U57A A62G A129G,0.71
21,A60G U72A A82G U103A U120C U124C G137U,0.02

row,Variant,self-cleavage
1,A59G U70A U87C A129G,0.16
2,A56U A67G G79A,0.46
3,A60G A78U A95G U103A U120C,0.1
4,A56G A91G A95G,1.37
5,A60G U72C A111G,0.02
6,A56G U57C A94G,0.62
7,A60G A117G U120C,0.23
8,A56G A78C A92U U130C,0.38
9,A59G U87A A111G U139A,0.01
10,A59U A68G U100C U139C,2.05
11,A56G C76U U87C A140G,0.08
12,A60G A62G U108A,0.02
13,A59G A92G A98G,0.49
14,A56G U100C U102A,1.71
15,U57G A95C U97A A110G,0.17
16,G58A U120C A126G,0.78
17,U57A A66G U100C A116G U122C,1.79
18,U57C U87C A125G,0.21
19,A59G A67G U103C A114U,0.03
20,A59U U87C U102C,1.14
21,A60G U103A U122C A126G,0.21

row,Variant,self-cleavage
1,U57C A78U U108A U127C,0.01
2,A56G A69G U100A U132C,0.19
3,G58A A66G A118G,0.99
4,A60G U122C U127C,0.71
5,A59G A89G A116U,0.35
6,A56G U70A A92G A114G A117G,0.03
7,A60G A90G A116C,0.01
8,A59G A62G A66G A135G,1.47
9,A59G A68G G75A A78G,0.17
10,A56G A67G C81U,0.39
11,A56G A92G G104C G106U G115A,0
12,A59U A98U A118G,0.58
13,A59G A95G U122C U132C,1.3
14,A60G A114G U130C,0.04
15,A60G A68G A111G,0.06
16,A56G A67U U87C U102C A135U,2.62
17,A56G A64G U131C U132C,1.4
18,A56G U57C A118G,0.37
19,A60G A68U U102C,1.68
20,A59G A63G U70C A111G,0
21,A60G A69G U103C A118G,0.36

row,Variant,self-cleavage
1,A59G A64G A94G,1.78
2,A59U A82G U132A,0
3,A59U A67G A68G,0.46
4,A56G A78U U87C A95G,0.37
5,A59G G83A G106A,0.02
6,A56G A62C U130G,1.02
7,A56U A86G A89G,1.75
8,A59G A60G A69G U72A A92U,0.28
9,A60G A82U A135U,0.04
10,U57C G83U U97C A114G U122C U132C,0.01
11,A60G U70A C113U,0.06
12,A60G A66G U102C,1.48
13,A59G A82G A126U,0.44
14,U57A U87C U102C,2.69
15,A60G U102C G138A,1.49
16,A59G U130C U132C,0.84
17,A56G A67U A114G U139C A140G,1.81
18,U57C A96G A111G U124A U130C,0.01
19,A56G A69G U97G A111G,0.01
20,A59U U122C A126G,1.44
